Structures are written as SMILES. The campaign covered roughly 310,000 compounds. About 2,200 (0.71%) showed an effect of 50% or more. Effects have a minus sign here. The list shows a part of the results.

For this assay, the target named is human ether-à-go-go-related gene (hERG) potassium channel (human, UniProt Q12809). Briefly: primary screen, population patch clamp on CHO cells stably expressing hERG.
Sequence of human ether-à-go-go-related gene (hERG) potassium channel (Q12809 whole entry, looked up): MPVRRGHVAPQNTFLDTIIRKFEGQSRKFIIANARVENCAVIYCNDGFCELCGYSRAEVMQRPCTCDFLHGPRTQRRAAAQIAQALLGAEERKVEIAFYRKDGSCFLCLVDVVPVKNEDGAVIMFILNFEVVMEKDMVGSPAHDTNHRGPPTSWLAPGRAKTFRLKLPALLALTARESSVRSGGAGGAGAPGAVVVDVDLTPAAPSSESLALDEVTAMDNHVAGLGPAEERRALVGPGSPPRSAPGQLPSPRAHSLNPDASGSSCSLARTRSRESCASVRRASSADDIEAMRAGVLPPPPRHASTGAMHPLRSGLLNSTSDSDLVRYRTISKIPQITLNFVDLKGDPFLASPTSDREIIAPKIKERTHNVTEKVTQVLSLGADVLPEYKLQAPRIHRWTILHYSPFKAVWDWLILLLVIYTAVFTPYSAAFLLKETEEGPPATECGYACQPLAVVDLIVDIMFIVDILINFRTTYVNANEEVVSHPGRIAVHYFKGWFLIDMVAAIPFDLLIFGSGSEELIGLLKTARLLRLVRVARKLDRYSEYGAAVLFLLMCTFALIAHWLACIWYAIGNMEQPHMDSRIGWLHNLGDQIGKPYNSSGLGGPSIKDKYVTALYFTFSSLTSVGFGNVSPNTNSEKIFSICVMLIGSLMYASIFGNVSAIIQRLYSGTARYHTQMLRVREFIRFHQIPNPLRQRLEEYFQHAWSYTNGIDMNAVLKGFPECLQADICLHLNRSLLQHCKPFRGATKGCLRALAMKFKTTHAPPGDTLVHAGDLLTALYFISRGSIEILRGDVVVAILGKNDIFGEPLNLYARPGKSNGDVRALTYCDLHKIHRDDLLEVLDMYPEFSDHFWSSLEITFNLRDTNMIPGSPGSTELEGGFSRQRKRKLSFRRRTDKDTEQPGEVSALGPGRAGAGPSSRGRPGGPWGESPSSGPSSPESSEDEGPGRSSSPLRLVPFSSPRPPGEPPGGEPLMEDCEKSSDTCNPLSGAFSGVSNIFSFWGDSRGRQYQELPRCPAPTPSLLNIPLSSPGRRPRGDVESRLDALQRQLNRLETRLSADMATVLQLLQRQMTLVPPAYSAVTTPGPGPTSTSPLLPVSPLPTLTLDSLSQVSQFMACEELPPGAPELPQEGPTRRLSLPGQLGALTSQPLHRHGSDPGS
For `NC(=O)c1c(NC(=O)Cn2cnc([N+](=O)[O-])n2)sc2c1CCCC2`, the “hERG current change (%, negative = inhibition) at 1uM” value was 11.4%.
The figure for `COc1ccc(CNC(=O)COC(=O)c2ccco2)cc1` is 9.97%.
The figure for `CCOc1cc(CNc2ccc(N3CCCC3)cc2)cc(Cl)c1OC` is 6.15%; for `COc1cccc(/C=N/NC(=O)c2cc(-c3ccccn3)nc3ccccc23)c1O` it is 11.2%; for `COc1ccc(C(=O)NCCCOC(C)C)cc1OC1CCN(C(C)=O)CC1` it is 16.5%.
The figure for `COc1ccc(/C=C/C(=O)Nc2ccc(S(=O)(=O)Nc3onc(C)c3C)cc2)cc1OC` is 18.7%.
As to `COc1ccc(CC(=O)NCC(c2ccc(OC)cc2)N(C)C)cc1` (stereo not drawn), the “hERG current change (%, negative = inhibition) at 1uM” value stood at 8.86%.
Next, `COCCN(C(=O)COC(=O)c1ccc2[nH]c(C)c(C)c2c1)c1c(N)n(Cc2ccccc2)c(=O)[nH]c1=O`: 7.98%; `CCOc1ccc(NC(=O)CSc2nnc(C)n2Cc2ccccc2)cc1`: -11.2%.
Regarding `CCOc1ccccc1NC(=O)CCc1nnc2ccc(N3CCC4(CC3)OCCO4)nn12`, the “hERG current change (%, negative = inhibition) at 1uM” value was determined as 1.14%.
The figure for `CC(C)N1CCc2c(sc(NC(=O)c3ccc(S(=O)(=O)N(C)CC4CCCO4)cc3)c2C(N)=O)C1.Cl` (stereo not drawn) is 3.64%.
With `CCOc1ccc(/C=N/NC(=O)CN2CCSCC2)cc1`, the “hERG current change (%, negative = inhibition) at 1uM” value was 10.2%.
The figure for `CCN(CC)CCNc1ncnc2c1[nH]c1ccc(OC)cc12` is -42.6%.
Next, `COc1ccc(C(=O)OCC(=O)Nc2ccc(Cl)cn2)cc1`: 14.2%; `CN(C)CCNC(=O)c1onc(CSc2ccc(F)cc2)c1C(=O)NCCN(C)C`: 9.46%; `Cn1nc(-c2ccccc2)c(-c2nc(-c3ccc(Cl)cc3)no2)c1Cl`: 8.1%.
Next, `Cc1c(S(=O)(=O)N2CCCC(C(=O)O)C2)cnn1C` (stereo not drawn): 15.6%; `Cc1ccsc1/C=N/Nc1ccc(Cl)nn1`: 8.37%.
In the case of `Cl.O=C1NCC2(CCN(CCc3ccccc3)CC2)O1`, the “hERG current change (%, negative = inhibition) at 1uM” value stood at 17%.
The figure for `COc1cc2c(cc1OC)CN(C(=O)c1ccc(S(=O)(=O)N(C)c3ccccc3)cc1)CC2` is 3.47%; for `O=C(Cn1nnc(-c2ccccc2-n2cnnn2)n1)N1CCCCC1` it is 9.93%; for `COc1cccc(C(=O)NCCCn2ccnc2)c1` it is 9.03%.
Next, `COc1ccc(/C=N/NC(=O)CC(=O)N/N=C/c2ccc(OC)cc2)cc1`: 4.74%; `CCCC1(C)NC(=O)c2ccccc2O1` (stereo not drawn): 17.8%.
In the case of `Cc1ccc(C(=O)N/N=C/c2ccc(-c3ccccc3[N+](=O)[O-])o2)cn1`, the “hERG current change (%, negative = inhibition) at 1uM” value was 2.39%.
The figure for `Cc1ccc2c(c1)C(c1ccncc1)=NNC(c1ccc(F)cc1)=N2` is 2.66%.
For `CCN(c1ccccc1)S(=O)(=O)c1cc2c3c(c1)C(C)C(=O)N3CCC2` (stereo not drawn), the “hERG current change (%, negative = inhibition) at 1uM” value came to 7.24%.
On to `CCOC(=O)CNC(=O)N1CCCC(C(=O)c2ccc3c(c2)OCO3)C1` (stereo not drawn), for which the “hERG current change (%, negative = inhibition) at 1uM” value is given as 0.803%.
Next, `O=S(=O)(NCC1CCCO1)c1ccc(Br)cc1` (stereo not drawn): 10.7%; `Cc1ccc(S(=O)(=O)N2CCOCC2)cc1NC(=O)CNCC1CCCCC1.O=C(O)C(=O)O`: 8.34%; `CC(C)OCCCn1c(SC(C)C(=O)NCC2CCCO2)nc2cc(Cl)ccc2c1=O` (stereo not drawn): 7.81%.
Next, `Cc1ccc(NC(=O)CSc2ccc(-c3ccccn3)nn2)c(C)c1`: 14.1%; `CC1(C)Cc2c(sc3ncnc(NN)c23)CO1`: 7.21%; `CSc1ncc(CN2CCCC(C(=O)c3cccc(Cl)c3)C2)cn1` (stereo not drawn): 2.26%.
Regarding `Cc1nn(-c2ccc(N3CCOCC3)nn2)c(C)c1CCC(=O)Nc1ccc(F)cc1`, the “hERG current change (%, negative = inhibition) at 1uM” value amounted to 14.4%.
The figure for `CC1CC(OC(=O)c2ccccc2)(c2ccccc2)C(C)CN1C` (stereo not drawn) is 10.3%; for `CCOC(=O)c1c(NC(=O)c2ccoc2C)sc2c1CCC2` it is 14.2%; for `FC(F)(F)c1cccc(Cn2c3[n+](c4ccc(C(F)(F)F)cc42)CCCCC3)c1.[Cl-]` it is 5.94%.
Consider `OC(COc1ccc2cc(Br)ccc2c1)CN1CCN(c2ccccn2)CC1` (stereo not drawn), for which the “hERG current change (%, negative = inhibition) at 1uM” value turned out to be 11.4%.
The figure for `OC(C#CCCN1CCCCC1)(c1ccccc1)C1CCCCC1` (stereo not drawn) is -1.95%; for `CCn1c(N2CCN(C(=S)Nc3ccc(OC)cc3)CC2)nc2ccccc21` it is -44.4%.
The figure for `COc1ccc(C2NC(=O)c3ccccc3O2)c(OC)c1OC` (stereo not drawn) is 10.6%; for `COC(=O)C1=C(O)/C(=C\c2ccc(CNC(=O)C(=O)Nc3ccc(C)cc3)o2)N=C1C` it is 14.2%.
Next, `O=C(NCc1ccco1)c1cccc(NC(=O)c2ccco2)c1`: 2.19%.
For `Cc1cc(C)cc(NC(=S)N2CCC(N(C)CC3CCCO3)CC2)c1` (stereo not drawn), the “hERG current change (%, negative = inhibition) at 1uM” value is given as -1.85%.

The record behind these values is paper PMC4336329 (PLoS ONE, 2015).
